The test relates to BDF1 mice, intracerebral L1210 leukemia, survival T/C. Nature of the test: NCI In Vivo Anticancer Drug Screen. Data for tumor model L1210 Leukemia (intracerebral) in B6D2F1 (BDF1) mice. The conditions noted are these: endpoint: mean survival time, higher = longer survival. The method, then: The antitumor activity of compounds was measured in mice bearing transplantable tumors. Survival or tumor size were measured and the results are expressed as the measurement made in the treated group (T) divided by the measurement made in the vehicle treated control group (C). The tumor model used in this assay is L1210 Leukemia (intracerebral) in B6D2F1 (BDF1) mice

Toxic doses and inconclusive results are not listed. Certain results were filed several times, with different values. This list holds those alone. An entry can have further records. The records of an entry do not match, cause unknown; dose, time, organism, isomer or construct need not be as stated for each record. Marks such as (2×) say how often a value occurs here.

In the case of `O=P1(N(CCCl)CCCl)NCCCO1` (stereo unspecified), the T/C (dose: 100.0 mg/kg/injection, schedule: Q01DX001 (ip), vehicle: Klucel (hydroxypropylcellulose) (HPC)) was 115 % of control and 153 % of control.

Turning to `COCCOC1=C(N2CC2)C(=O)C(OCCOC)=C(N2CC2)C1=O`, the T/C (dose: 0.5 mg/kg/injection, schedule: Q01DX009 (ip), vehicle: saline) was 96 % of control (2×) and 301 % of control; the T/C (dose: 4.0 mg/kg/injection, schedule: Q01DX009 (ip), vehicle: saline) is given as 105 % of control, 121 % of control, 163 % of control.

In the case of `CC(CN1CC(=O)NC(=O)C1)N1CC(=O)NC(=O)C1` (stereo unspecified), the T/C by setting is: (dose: 12.5 mg/kg/injection, schedule: Q03HX024 (ip), vehicle: steriod suspending solution) 116 % of control, 152 % of control, 158 % of control; (dose: 300.0 mg/kg/injection, schedule: Q04DX003 (ip), vehicle: other) 112 % of control, 119 % of control, 157 % of control; (dose: 300.0 mg/kg/injection, schedule: Q04DX003 (ip), vehicle: steriod suspending solution) 117 % of control, 124 % of control, 157 % of control.

Consider `O=C1C(Cl)=C(N2CC2)C(=O)C(Cl)=C1N1CC1`, for which the T/C (dose: 2.5 mg/kg/injection, schedule: Q01DX009 (ip), vehicle: saline) is listed as 102 % of control, 104 % of control, 413 % of control; the T/C (dose: 5.0 mg/kg/injection, schedule: Q01DX009 (ip), vehicle: saline) is reported as 92 % of control, 104 % of control, 413 % of control; the T/C (dose: 10.0 mg/kg/injection, schedule: Q01DX009 (ip), vehicle: saline) is given as 96 % of control, 103 % of control, 289 % of control.

In the case of `O=C1C(NC(=O)C2CCCCC2)=C(N2CC2)C(=O)C(NC(=O)C2CCCCC2)=C1N1CC1`, the T/C (dose: 100.0 mg/kg/injection, schedule: Q01DX009 (ip), vehicle: Klucel (hydroxypropylcellulose) (HPC)) was 100 % of control, 101 % of control, 160 % of control.

Turning to `CCC(=O)NC1=C(N2CC2C)C(=O)C(NC(=O)CC)=C(N2CC2C)C1=O` (stereo unspecified), the T/C (dose: 6.25 mg/kg/injection, schedule: Q01DX009 (ip), vehicle: Klucel (hydroxypropylcellulose) (HPC)) was 105 % of control and 411 % of control.

The record behind these values is PubChem BioAssay AID252 (DTP/NCI, 2004).
